This is one part of the list. At the low end of the ranking the order means little.
Each sequence was assayed against MAX:MAX (p21) (UniProt P61244-2) (assay: protein-binding microarray (anti-MAX antibody)). Conditions: PBM: 15 mM Tris-HCl pH 7.5, 100 mM KCl, 0.075% NP40, 7.5 mM beta-mercaptoethanol, 375 ng/ul BSA, 8 ng/ul poly(dA-dT):(dA-dT), 550 ng complex, 60 min, room …; high values mean tight binding; double strand, one strand shown; sequences stand for … in CCGGC…TTAATAGCTAAGATTACTATATCGACG.

Sequence	binding signal (log2 normalized fluorescence)
TGACGGGTGGTA	0.664
TGATACTAAGTA	-0.495
TGAGGAGCAGTA	-0.75
TGAAGGCGTGTA	1.87
TGATTTGGCGTA	-1.27
TATTACGTGGTA	1.27
TGAGGGTTAGTA	-0.808
AGACGGGAGGTT	0.68
TGTAACGTGGTA	2.88
TGAGTTAATGTA	-1.14
TGATGCAGAGTA	-0.167
TGAGCCGTGGTA	0.289
TGAAGCGGCGTA	-0.562
TGAGTCCGCGTA	-0.693
TGAAGAACTGTA	-0.753
TGAACGCGAGTA	0.406
TGAGCAGCTGTA	0.361
TGAGTAAAAGTA	-1.27
TGAGCTGGGGTA	-0.306
TGACTACACGTA	0.596
TGACGGGTCGTA	-0.372
TGAGTTCTCGTA	-1.15
TGATGTGTAGTA	-0.151
TGAGGAACGGTA	-0.678
TGAACGGTTGTA	-0.545

Sequence	binding signal (log2 normalized fluorescence)
TGACCACGAGTA	2.66
TGAAAAGGTGTA	-0.00249
TGATATTCCGTA	-1.17
TGAGGAGAGGTA	-0.732
TGGCCCGGGGTA	-0.611
TGACGATTAGTA	-1.08
TGAGAACTCGTA	-0.56
TGACGCAAGGTA	0.745
TGACAATGTGTA	1.45
AGACACATGGTA	3.18
TGAGAAATGGTA	-0.683
TGAAAGGTTGTA	-0.311
TGAGTTACCGTA	-0.943
TGTCGCGTCGTA	-0.202
TGACAGCGCGTA	0.475
TGAATTGGCGTA	-0.782
CCGCCAAAGCAT	0.154
TGACTGGACGTA	-0.42
TGACTGGTAGTA	-0.671
TGATCTATCGTA	-1.08
TGAGGAAGTGTA	-0.651
TGATACAAGGTA	-0.607
TGAGCTGTGGTA	-0.413
TGAATTAACGTA	-0.724
TGACTCGACGTA	-0.42

Sequence	binding signal (log2 normalized fluorescence)
TGACGTTCAGTA	-0.529
TGAGTATTAGTA	-0.932
TGAATTGTCGTA	-0.633
TGATTACTAGTA	-0.993
TGACACATGGAA	3.03
CCTGTGCTGAGC	1.87
TGAATGCGCGTA	0.739
TGACGAGGGGTA	0.572
TGAGCGCCGGTA	-0.538
TGACCCCACGTA	0.684
TGACTCGTAGTG	-0.821
TGAATGCCAGTA	-0.0193
TGACCCAACGTA	-0.297
TGATGACTCGTA	0.427
TGACACGTGTTG	3.32
TGAGTGTTAGTA	-0.0639
TGACACTTGCTG	0.64
TGACGCTAGGTA	-0.628
TGACGGTCAGTA	-0.24
TGATTTATTGTA	-0.965
TGATGTACAGTA	-0.00798
TGACGTGTCGTA	1.07
TGACAACCTGTA	0.714
TGCAACGTGGTA	3.07
TGACTACTCGTA	-0.414

Sequence	binding signal (log2 normalized fluorescence)
TGAATTTGGGTA	-1.17
TGACGGGGTGTA	0.602
TGAATGGGTGTA	0.375
TGAGGAGGGGTA	1.06
TGACTCCTGATA	-0.197
TGACACGCCCTA	2.49
TGAATGGAAGTA	0.319
TGACGTTGCGTA	0.026
TGACACGTGCAC	3.13
TGAGTAGCCGTA	-1.24
TGATTCAAGGTA	-0.736
TGATTTCGAGTA	-0.909
TGACAACACGTA	0.856
AATACAGCTTAC	0.359
TGACACGTGTGT	3.37
TGAGGCCCCGTA	-0.911
TGAACGGTAGTA	-0.717
TGACGCAAAGTA	-0.646
TGAGCCACCGTA	-0.374
TGACTACGGGTA	-0.601
TGAGCCAAGGTA	-0.781
TGGGCACCCATT	0.0618
TGACACCGAGTA	0.12
TGACGGAGTGTA	-0.121
TGATGATTGGTA	-0.267

Sequence	binding signal (log2 normalized fluorescence)
TGAGGCGACGTA	-0.682
TGAGCCGCGGTA	-0.96
TGATGCTATGTA	-0.213
TGACCTACAGTA	-0.385
TGAGCGCATGTA	2.64
TGACACGTGAAA	3.09
TGACCACACGTA	1.68
TTACACGATGTA	2.37
GAGCACGTGGTA	3
TGAGTAGCGGTA	-0.976
TGACAAAGCGTA	-0.663
TGACTGATAGTA	-0.253
TGAGGATCAGTA	-0.828
TGATAGCATGTA	1.69
TGATCTACCGTA	-1.27
TGAAATGTGTTA	1.65
TGACGTGGCGTA	1.44
TGATTCTTCGTA	-1.26
TGACACGTCGTA	1.79
TGAAATCCGGTA	-1.23
CGACACGCGGTT	3.18
AGACACTTGGTA	1.06
TGAGAACAAGTA	-0.676
TGACAATTAGTA	-0.824
TGAGCAGGCGTA	0.16

Sequence	binding signal (log2 normalized fluorescence)
TGATGACCCGTA	0.112
TGAGACGTGGGA	0.979
CGACTAGTGGTA	-0.455
TGAGGGAGTGTA	-0.256
TGAACGTAGGTA	-0.389
TGACTGGGCGTA	-0.479
TGACTAACCGTA	-0.733
TGAAGCCGGGTA	-0.857
TGACGGAACGTA	-0.575
TGAAAGGCCGTA	-0.667
TGACATATGGTA	2.15
TGATAATTAGTA	-1.33
TGAATGATGGTA	0.458
TGAGTACGGGTA	-0.89
TGATGTGCTGTA	0.725
TGAGGCGCAGTA	-0.509
TGATCTCCGGTA	-1.13
TGAGACTCCGTA	-0.692
TGACCGTACGTA	-0.426
TGAACTAGTGTA	-0.473
TGATTAGACGTA	-0.973
TGAACCAGGGTA	-0.134
TGAAGATCGGTA	-0.799
TTATACGTGGTA	1.14
TGACAGGCCGTA	0.495

Sequence	binding signal (log2 normalized fluorescence)
TGAGACGGTGTA	-0.88
TGACGACAGGTA	-0.411
TGACGTGTGGTA	1.73
TGATGGTCGGTA	0.134
TGAGCGAGCGTA	-0.539
TGAAGTGGAGTA	-0.697
TGAGCCATGGTA	0.345
TGAGTGCACGTA	0.795
TGAGTATTGGTA	-0.979
GGGCACGTGGGA	3.48
TGAGCACCAGTA	0.0594
TGACAGACTGTA	-0.0269
TGACCGGACGTA	-0.306
TGACGGACCGTA	-0.471
TGATGCAAAGTA	-0.291
TGAAACATGGTA	1.55
TGAGAGAAAGTA	-1.15
TGACAACTAGTA	-0.327
TGACAGATGTTA	1.11
TGAGACTAAGTA	-0.885
TGAAATGGAGTA	-0.309
AGACACGCGGTC	3.2
TGATTAACTGTA	-0.965
TGAGCGGGTGTA	0.021
TGACAATAAGTA	-0.342

Sequence	binding signal (log2 normalized fluorescence)
TGAGCTTCCGTA	-1.15
TGAAGCGCCGTA	-0.344
TGAAGGTTAGTA	-0.583
TGAATGGATGTA	0.312
TGAGCTTACGTA	-0.904
TGGCACGGGGTA	2.89
TGAGGGCAAGTA	-0.359
TGACCAAAGGTA	-0.321
TGAACGCTCGTA	-0.302
TGATGGTTAGTA	-0.0548
TGACACACAGTA	0.891
TGAGGTGCAGTA	-0.241
TGATCACTTGTA	-0.295
TGACACAGGGTA	0.747
TGACACGTCGTT	1.92
TGATTTCTTGTA	-1.29
TGACGGCGCGTA	0.838
TGAATTTTGGTA	-1.47
TGACTGCTCGTA	-0.19
TTCTACGAAGGA	-1.2
TGTCACCTGGTC	2.62
TGAGAAAAAGTA	-1.26
TACAGTCATGGA	0.645
TGTCTCGTGGTA	3.18
TGACTTATTGTA	-0.685

Sequence	binding signal (log2 normalized fluorescence)
TGAGATCCCGTA	-1.12
TGAGCCCCAGTA	-0.996
TGACGTAAGGTA	0.0183
TGAGTGGCAGTA	0.141
TGAGCATTGGTA	0.347
TCTCACGTGGTC	3.06
TGAAGTGCTGTA	0.0803
TGAGTCGTGGTA	0.516
TGAAAATTCGTA	-1.04
TGACACCTGTTA	2.39
TGACTTACGGTA	-0.375
TGAAGCCGAGTA	-1.17
TGAAACGTGGTC	3.11
TGATGTGTGGTA	0.648
TCATACGTGGTA	1.88
TGAGGGAGCGTA	-0.434
TGAGCCCAAGTA	-1.04
TGATTGCTGGTA	-0.488
TGACGGACGGTA	-0.374
TGATCGTCTGTA	-0.526
TGACTCCCCGTA	-0.408
TGATTTGGAGTA	-1.23
TGAGCTCCAGTA	-0.971
TGATACGTTGTA	-0.424
TGATATAATGTA	-0.664

Sequence	binding signal (log2 normalized fluorescence)
TGACCTCGTGTA	3.27
TGATACTCGGTA	-0.83
TGATCATCGGTA	-0.564
TGAATGATCGTA	0.0685
TGAAGACATGTA	0.506
TGAAGTACAGTA	-0.401
CAACACGTTGTA	3.07
TGATCCGGCGTA	-1
TGACACGTGCAT	2.85
TGATCTCCTGTA	-0.703
TGAACATCCGTA	-0.276
TGAGTCTAGGTA	-1.11
TGAAGCGAAGTA	-0.471
TGACACGTAGGA	1.2
TGAGACCCAGTA	-0.803
TGAACGGGAGTA	-0.832
TGCCACTTGGTG	0.429
TGATACAGGGTA	-0.572
TGATGATAGGTA	-0.382
TCCCACTTGGTA	0.301
TGAACGTCCGTA	-0.275
TGAGTAGATGTA	-0.95
TGACTCTGTGTA	-0.824
TGACTATTCGTA	-0.877
TGCCACGTGCGA	3.47

Sequence	binding signal (log2 normalized fluorescence)
TGACACGTCAGA	0.975
TGAACCTTTGTA	-0.735
TGACCGAAAGTA	-0.356
TGGCACGTGGCA	3.03
TGAAGATGAGTA	-0.347
GTGACGATCAGC	2.36
TGACCAAATGTA	-0.188
TGAGGAAATGTA	-0.626
TGATCCCCGGTA	-0.987
TGAAACGCCGTA	0.0516
TGAGCTATAGTA	-1.09
TGACGGCAAGTA	-0.0997
TGACACGAATTA	0.693
TGATAACAGGTA	-0.565
TGAGCACTCGTA	-0.121
TCACACGTGTTA	3.29
TGACGGTTCGTA	-0.498
TATCACCTGGTA	2.25
TGAGACGTAATA	-0.894
TGTCACGTGTTC	3.22
TGATACGAGGTC	-0.219
TGAGACTATGTA	-0.713
TGAAGGAGTGTA	-0.165
TGGCACTGGGTA	-0.146
TGACCGGTGGTA	0.694
